Experimental data: PubChem BioAssay AID686978 (National Center for Advancing Translational Sciences (NCATS), 2013)
The whole screen tested about 420,000 compounds, of which about 64,000 (15%) were called active. Inconclusive results, whose numbers are uncertain, are shown with a selection of clear calls. Calls come from the whole dose curve; as a rule, active = well fitted inhibition curve with a large enough effect; inconclusive = small, poorly fitted or top-dose-only effect; inactive = flat fitted curve, though single readings scatter. Potencies of inconclusive entries are left out as doubtful fits.

Experiment: qHTS for Inhibitors of human tyrosyl-DNA phosphodiesterase 1 (TDP1): qHTS in cells in absence of CPT; note: nearly all actives have a fitted effect of over 55% in size
Settings: DT40 Tdp1-/- hTDP1 cells, no CPT, ATP luminescence, 48 h; activity change, negative = growth inhibition: at 46.2 µM (top of the series) unless noted
Outline: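 Readout: luminescence from CellTiter-Glo after 30 min in the dark at RT. Cells: DT40 Tdp1-/- with stable hTDP1, 400/well. Exposure: compounds alone, ≥48 hr, 37 °C.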
% is set by controls: 0 for no effect and ±100 for the full control effect; potency is the fitted concentration of half-maximal effect; tags give direction and shape of the fitted curve.

With COc1ccc(OC)c2c1sc(=NC(=O)C1CCCCC1)n2C as the compound, how does the “activity change, negative = growth inhibition” value read?
The value was inactive: -23.4%.

With O=C(NCC1CCCO1)c1nn2c(c1Cl)NC(c1ccc(F)cc1)CC2C(F)(F)F (centres undefined) as the compound, how does the Potency read?
The Potency was inconclusive [inhibitor, single point].

Which Potency does the source give for CCCCNC(=O)C[C@@H]1C[C@@]2(C(=O)OC)CC(C)(C)CC=C2N(Cc2ccc3c(c2)OCO3)C1=O here?
Its Potency is inconclusive [inhibitor, single point].

With CN(Cc1ccco1)c1ncncc1-c1ccccc1Cl as the compound, how does the Potency read?
Its Potency is inconclusive [inhibitor, single point].

Which Potency does the source give for O=C(NCCc1ccccc1)c1c[nH]c2ccccc2c1=O here?
Its Potency is inconclusive [inhibitor, partial curve].

Which Potency does the source give for CCCn1c(CCC(=O)Nc2cc(C(=O)OC)cc(C(=O)OC)c2)nc2cccnc21 here?
Its Potency is inconclusive [inhibitor, partial curve, poor fit].

Which Potency does the source give for NNc1nnnc2c1sc1nc(N3CCOCC3)c3c(c12)CCCC3 here?
Its Potency is inconclusive [inhibitor, single point].

With CCN1CCN(CCCOc2ccc(-c3ccccc3)cc2)CC1 as the compound, how does the Potency read?
The Potency was inconclusive [inhibitor, single point].

With Cc1cc(C(=O)CN2C(=O)C(=O)N(CCC3=CCCCC3)C2=O)c(C)n1C as the compound, how does the Potency read?
The Potency was inconclusive [inhibitor, single point].

For COc1cc(F)ccc1-c1csc(C(C)(NC(C)=O)c2ccccc2)n1 (centres undefined), which Potency is on record?
The Potency was active: 5.17 µM.

Which Potency does the source give for COCCCNC(=O)/C(C#N)=C/c1c(N2CCN(c3cccc(Cl)c3)CC2)nc2c(C)cccn2c1=O here?
Its Potency is inconclusive [inhibitor, single point].

With O=C(N/N=C/C=C/c1ccccc1[N+](=O)[O-])c1cc(-c2cccnc2)nc2ccccc12 as the compound, how does the Potency read?
Its Potency is active: 20.6 µM.

For O=C(c1ccc(S(=O)(=O)N2CCCCCC2)cc1)N1CCCC(C(F)(F)F)C1 (centres undefined), which Potency is on record?
The Potency was inconclusive [inhibitor, single point].

With COc1cc(/C=N/NC(=O)C(Cc2c[nH]c3ccccc23)NC(=O)OCC(C)C)cc([N+](=O)[O-])c1O (centres undefined) as the compound, how does the Potency read?
The Potency was inconclusive [inhibitor, partial curve].

With CCOC(=O)c1ccccc1NC(=O)c1cc(S(=O)(=O)N2CCOCC2)ccc1F as the compound, how does the Potency read?
The Potency was inconclusive [inhibitor, partial curve, poor fit].

Which activity change, negative = growth inhibition does the source give for CCOc1ccccc1-c1nc(-c2ccc(NC(=O)Cc3ccc(OC)cc3)cc2)no1 here?
Its activity change, negative = growth inhibition is inconclusive: -31% [inhibitor].

For CCCn1c(CCC(=O)Nc2cc(OC)cc(OC)c2)nc2cccnc21, which Potency is on record?
The Potency was active: 23.1 µM.

For COc1c(C)cc(C(=O)C2CCCN(C(=O)c3cc(C)n(C)n3)C2)cc1C (centres undefined), which Potency is on record?
Its Potency is inconclusive [inhibitor, single point].

With CCCCOc1ccc(Cn2c(=O)sc3ccccc32)cc1OC as the compound, how does the Potency read?
The Potency was inconclusive [inhibitor, single point].

With Oc1ccccc1-c1n[nH]c(-c2ccccc2O)n1 as the compound, how does the Potency read?
The Potency was active: 5.17 µM.

For CC1CCCC(NC(=O)CSc2nnc(-c3cccnc3)o2)C1C (centres undefined), which Potency is on record?
The Potency was inconclusive [inhibitor, single point].

With CCCC1=NN2C(=N)/C(=C\c3cc(C)n(Cc4ccccc4)c3C)C(=O)N=C2S1 as the compound, how does the “activity change, negative = growth inhibition” value read?
The value was inactive: 14.8%.

For CCOC(=O)[C@]12CCCC=C1N(CCC1=CCCCC1)C(=O)[C@H](CC(=O)NCC13CC4CC(CC(C4)C1)C3)C2, which Potency is on record?
Its Potency is inconclusive [inhibitor, single point].

With CCOC(=O)C1=C(CN2CCN(C(=O)OCC)CC2)NC(=O)NC1c1ccc2c(c1)OCO2 (centres undefined) as the compound, how does the Potency read?
Its Potency is inconclusive [inhibitor, partial curve].

Which Potency does the source give for O=C(NCc1ccc2c(c1)OCO2)c1cccc(C(=O)NCc2ccc3c(c2)OCO3)c1 here?
The Potency was inconclusive [inhibitor, partial curve, poor fit].

With COc1ccc(/C=C/C(=O)ONC2=NCCCCC2)cc1OC as the compound, how does the Potency read?
The Potency was inconclusive [inhibitor, single point].

Which “activity change, negative = growth inhibition” value does the source give for CCn1c(=O)c(=O)[nH]c2cc(C(=O)N3CCN(Cc4ccc5c(c4)OCO5)CC3)ccc21 here?
Its value is inactive: 2.02%.

With CN(CCCN1CCCCC1)C(=O)c1cc(COc2ccc(F)cc2F)on1 as the compound, how does the “activity change, negative = growth inhibition” value read?
The value was inactive: -4.81%.

For COc1ccc(C(CCN2CCCC(C)C2)c2c(OC)cc(OC)c3c(C)cc(=O)oc23)cc1 (centres undefined), which Potency is on record?
Its Potency is active: 23.1 µM.

With OC[C@H]1OC(O)[C@H](O)[C@@H](O)[C@H]1O (some centres undefined) as the compound, how does the “activity change, negative = growth inhibition” value read?
The value was inactive: 3.05%.

Which Potency does the source give for Cc1ccc(NC2=CC(=O)CC(c3ccccc3)C2)cc1 (centres undefined) here?
Its Potency is active: 3.66 µM.

With O=C(CN1CCN(c2ccccn2)CC1)Nc1ccccc1Br as the compound, how does the Potency read?
Its Potency is inconclusive [inhibitor, single point].

With Cc1ccc(NC(=O)C2CCCN(S(=O)(=O)c3cccc4nsnc34)C2)cc1C (centres undefined) as the compound, how does the Potency read?
Its Potency is active: 18.4 µM.

For O=S1(=O)CCOC[C@H](c2ccccc2)N1Cc1ccc(Cl)cc1Cl, which Potency is on record?
Its Potency is inconclusive [inhibitor, single point].

With COc1cc(NCc2ccccc2O)c2ncccc2c1 as the compound, how does the Potency read?
The Potency was inconclusive [inhibitor, partial curve, poor fit].

For CC1CC(C)CN(S(=O)(=O)c2ccc3c(c2)CCN3C(=O)CCC(=O)O)C1 (centres undefined), which “activity change, negative = growth inhibition” value is on record?
The value was inactive: 14.8%.

With Cc1ccc(NC(=O)CSc2nnnn2C2CCCC2)cc1S(=O)(=O)N1CCOCC1 as the compound, how does the activity change, negative = growth inhibition read?
The activity change, negative = growth inhibition was inconclusive: -34.8% [inhibitor].

Which “activity change, negative = growth inhibition” value does the source give for N#C/C(=C(/O)COC(=O)Cc1c[nH]c2ccccc12)c1nc2ccccc2[nH]1 here?
The value was inactive: -16.2%.

For Cc1nn(CC(=O)Nc2ccccn2)c(C)c1Br, which Potency is on record?
Its Potency is inconclusive [inhibitor, single point].

For O=C(CSc1nc(Nc2ccccc2)nc(N2CCOCC2)n1)Nc1ccccc1Cl, which Potency is on record?
Its Potency is active: 11.2 µM.

With CN1CCN(c2nc(-c3ccccc3)ncc2S(=O)(=O)c2ccccc2)CC1 as the compound, how does the Potency read?
Its Potency is inconclusive [inhibitor, single point].

For CCOCC(=O)NC1CCc2cc(OC)c(OC)c(OC)c2-c2ccc(SC)c(=O)cc21 (centres undefined), which Potency is on record?
The Potency was active: 0.164 µM.

With COc1cc(/C=N/NC(=O)CC23CC4CC(CC(C4)C2)C3)cc(Br)c1OCC(=O)N(C)C as the compound, how does the Potency read?
The Potency was active: 18.4 µM.

Which Potency does the source give for CC(=O)SCC[N+](C)(C)C here?
Its Potency is inconclusive [inhibitor, single point].

Which “activity change, negative = growth inhibition” value does the source give for CCSc1ncc(Cl)c(C(=O)Nc2nc3ccc(S(C)(=O)=O)cc3s2)n1 here?
Its value is inactive: -4.7%.

For COc1ccccc1/C=C/c1cnccn1, which Potency is on record?
The Potency was inconclusive [inhibitor, single point].

With CCOC(=O)N/N=C\c1sccc1C as the compound, how does the “activity change, negative = growth inhibition” value read?
Its value is inactive: 2.52%.

For CCCN1CCN(c2nnc(-n3cccc3C(=O)Nc3cc(Cl)ccc3C)s2)CC1, which Potency is on record?
Its Potency is inconclusive [inhibitor, single point].

Which Potency does the source give for c1ccc(CCNc2ccc3c(c2)Cc2ccccc2-3)nc1 here?
Its Potency is inconclusive [inhibitor, single point].

For O=C(Nc1ccc(Cl)cc1)N(CCCN1CCOCC1)Cc1cccs1, which Potency is on record?
Its Potency is inconclusive [inhibitor, single point].

For NS(=O)(=O)c1ccc(N/C=C\C(=O)c2ccncc2)cc1, which “activity change, negative = growth inhibition” value is on record?
The value was inactive: -0.261%.

With CCN(CC)CCN(C(=O)C1=COCCO1)c1nc2cc(C)cc(C)c2s1 as the compound, how does the Potency read?
The Potency was inconclusive [inhibitor, single point].

Which Potency does the source give for Cc1ccc(C)c(C(=O)COC(=O)c2cc([N+](=O)[O-])ccc2NCCO)c1 here?
The Potency was inconclusive [inhibitor, single point].

Which Potency does the source give for CCOc1ccccc1/C=C/c1cc(C(=O)O)c2ccccc2n1 here?
Its Potency is inconclusive [inhibitor, single point].

Which Potency does the source give for CSc1ccc(CN2CCC(C)(Oc3ccc(CC#N)cc3)C2)cc1 (centres undefined) here?
The Potency was inconclusive [inhibitor, single point].

Which Potency does the source give for S=C(NC1CCCCC1)NC1CC2C=CC1C2 (centres undefined) here?
Its Potency is inconclusive [inhibitor, single point].

Which Potency does the source give for O=C(CNCc1ccc(F)cc1)Nc1ccccc1-c1ccccc1 here?
Its Potency is inconclusive [inhibitor, single point].

Which Potency does the source give for COC(=O)c1c(C)[nH]c(C(=O)COc2ccc3ccc(=O)oc3c2)c1C here?
The Potency was active: 9.2 µM.

With OCCSc1nc(-c2ccccc2)nc2ccc(F)cc12 as the compound, how does the Potency read?
Its Potency is inconclusive [inhibitor, single point].

For c1ccc2c(CCNc3ncnc4nc[nH]c34)c[nH]c2c1, which Potency is on record?
The Potency was active: 11.6 µM.

With COc1ccccc1/C=N/NC(=O)c1ccc(-c2ccccc2)cc1 as the compound, how does the Potency read?
The Potency was inconclusive [inhibitor, single point].

For O=C(CN(Cc1ccc(F)cc1)C(=O)CCC(=O)Nc1ccccn1)NCc1ccc(F)cc1, which Potency is on record?
The Potency was inconclusive [inhibitor, partial curve].

For Cc1cc(NS(=O)(=O)c2ccc(Nc3nc(-c4sc(N)nc4C)cs3)cc2)no1, which “activity change, negative = growth inhibition” value is on record?
Its value is inactive: 0.744%.

Which Potency does the source give for Cc1ccc(-c2nc(CS(=O)CC(=O)NCc3ccccc3Cl)c(C)o2)cc1 (centres undefined) here?
Its Potency is inconclusive [inhibitor, single point].

For CCOC(=O)c1cccc(NC(=O)CCc2nnc3ccc(N4CCOCC4)nn23)c1, which “activity change, negative = growth inhibition” value is on record?
Its value is inactive: -0.956%.

For COc1ccc2nc(-c3ccco3)c(-c3ccco3)nc2c1, which Potency is on record?
Its Potency is inconclusive [inhibitor, single point].

For COc1ccc(NC(=O)c2cc(-c3sc(NC(=O)c4ccccc4)nc3C)n(Cc3ccccc3)n2)cc1, which Potency is on record?
Its Potency is inconclusive [inhibitor, partial curve].

With CCOC(=O)Cc1ccc(NC(=O)N2CCSc3ccccc32)cc1 as the compound, how does the Potency read?
The Potency was inconclusive [inhibitor, single point].

With Cc1ccc2sc(NNC(=O)c3cc(=O)c4ccccc4o3)nc2c1C as the compound, how does the Potency read?
The Potency was inconclusive [inhibitor, single point].
